Data reported in PubChem BioAssay AID1508623 (National Center for Advancing Translational Sciences (NCATS), 2021).
In all, about 48,000 compounds went through this assay and about 450 (0.94%) were called active. Roughly 19% stayed inconclusive and do not appear here. Calls follow the shape of the dose curve; as a rule, active = well fitted inhibition curve with a large enough effect; inconclusive = small, poorly fitted or top-dose-only effect; inactive = no such curve, though single readings can be large or run the other way. Some of the results follow.

Assay: Primary qHTS for Identification of Small Molecule Inhibitors of Huntingtin Promoter Activity; also: nearly all actives have a fitted effect of over 50% in size
Conditions: HEK293 HTT promoter firefly luciferase reporter (activity 0% = vehicle and -100% = no light), 24 h; series mostly up to 57.5 µM; activity change, negative = inhibition: at the top concentration
How it was run: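 Firefly luciferase signal from promoter-reporter HEK293 cells was scaled between vehicle (0%) and zero RLU (-100%). Compounds were tested at final concentrations of up to 57.5 uM over 24 h at 37 degrees C. PTC124 at 50 uM final served as control inhibitor.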

Activity change, negative = inhibition, inactive:
CCN(CC)c1ccc(NC(=O)C(Cc2ccccc2)NS(=O)(=O)c2ccc(Br)s2)c(C)c1 (centres undefined) -9.14%
COc1ccc(CCNCc2c(C(=O)O)c(C)n(Cc3ccccc3C)c2C)c(OC)c1 -21%
COc1ccc(S(=O)(=O)N(CC(=O)NCc2ccccc2OC)c2ccc(C)cc2)cc1 -29.1%
CCOc1ccccc1N(C)C(=O)Cn1cnc2sc(C)c(S(=O)(=O)N3CCC(C)CC3)c2c1=O -22.7%
COc1cc(OC)c(NC(=O)COCc2cc(-c3cccs3)on2)cc1Cl -18.8%
CC(C)(C)NC[C@H](O)COc1nsnc1N1CCOCC1 6.63%
COc1ccccc1CCNC(=O)CCc1c(C)c2cc3c(C)coc3c(C)c2oc1=O -6.05%
CN(C)CCN(Cc1ccco1)S(=O)(=O)c1cc2c(cc1Cl)NC(=O)CO2 7.67%
Cc1cn2c(=O)cc(COc3ccc(NC(=O)c4cccc(F)c4)cc3)nc2s1 -17.1%
O=C(Cn1c(=O)n(Cc2ccco2)c(=O)c2oc3ccccc3c21)Nc1ccc(F)cc1F -21%
Cc1nn(CCCC(=O)Nc2ccccc2C(F)(F)F)c(=O)c2c1sc1ccccc12 -4.04%
COc1cccc(NC(=O)Nc2cc(-c3cn4cccnc4n3)ccc2C)c1 -17.5%
CCC(Sc1nnc(C)n2c1cc1occc12)C(=O)Nc1ccccc1F (centres undefined) -2.95%
Cn1c(=O)n(C)c2cc(NS(=O)(=O)c3ccccc3)c(NCc3ccccc3)cc21 89.5%
O=C(NCCO)C(=O)Nc1c2c(nn1-c1ccc(F)cc1)CSC2 -13.4%
CC(C)Oc1ccc(CNC(=O)C2CCN(C(=O)c3sccc3-n3cccc3)CC2)cc1 -29.5%
Cc1ccc(-c2noc(CNC(=O)c3ccc(C(C)(C)C)cc3)n2)cc1 -2.06%
COc1ccccc1CNC(=O)CN1C(=O)CSc2ccc(S(=O)(=O)N3CCCC3)cc21 -8.02%
COCc1cc(C)n(CC(=O)Nc2ccc(NC(C)=O)cc2)c(=O)c1C#N -11.1%
COc1ccc(N2CCN(c3cc(C)nc4nc(-c5ccc(C)cc5)nn34)CC2)cc1 -11%
CC1=C(C#N)C(NC(=O)c2cccc(Cl)c2)(C(F)(F)F)C(=O)N1 (centres undefined) -6.4%
Cc1ccc(Cl)cc1NC(=O)N1CCN(C)c2ncccc21 -4.32%
CCc1cc2c(cc3c(=O)n(CC(=O)N4CCN(c5cc(Cl)ccc5C)CC4)ncn32)s1 -1.64%
Cc1ccc(S(=O)(=O)c2cn(C)c3cc(N4CCN(C)CC4)c(F)cc3c2=O)cc1 -12.1%
COc1ccccc1N1CCN(S(=O)(=O)c2c(C)sc3ncn(CC(=O)N(C)c4ccc(C(C)C)cc4)c(=O)c23)CC1 -28.7%
CNS(=O)(=O)c1ccc(OC)c(-c2nnc3c4ccccc4c(C)nn23)c1 -8.03%
Cc1ccc(C(=O)Nc2ccc3[nH]c(=O)c(=O)[nH]c3c2)cc1 1.93%
Cc1ccc(C2CCN(C(=O)Nc3ccc(C)c(C)c3)C2)cc1 (centres undefined) 30.5%
O=c1c2c3c(sc2n(Cc2ccc(F)cc2Cl)c(=O)n1-c1ccc(Cl)cc1)CCC3 17.8%
CCOc1ccc2cc(-c3nnc(Nc4ccc(C)cc4)s3)c(=O)oc2c1 0.56%
Cc1ccccc1OCc1ccc(-c2nc(C#N)c(N3CCC(C(N)=O)CC3)o2)o1 -28.8%
CCOc1ccc2c(c1)c(=O)c(S(=O)(=O)c1ccc(Cl)cc1)cn2Cc1ccccc1C -18.4%
COc1cccc(Nc2nc3ccc(C(=O)c4ccccc4)cc3n3c(C)nnc23)c1 -1.78%
COc1ccc(NC(=O)c2ccc(NC(=O)CCS(=O)(=O)c3cccs3)cc2)cc1 5.53%
O=C(Nc1ccc(Cl)c(-c2nc3cc(Cl)ccc3o2)c1)c1cc2ccccc2o1 0%
Cc1ccccc1NS(=O)(=O)c1nnc(NC(=O)c2ccco2)s1 -8.58%
CCOC(=O)c1c(S(=O)(=O)NCC(=O)N(C)c2ccc(C)cc2)c(C)n(C)c1C -0.357%
Cc1ccc(C)c(CN2C(=O)c3ccccc3S(=O)c3ccc(C(=O)NCCC4=CCCCC4)cc32)c1 (centres undefined) -27%
COc1ccc(CCC(=O)NCCc2csc(-c3cccc(C)c3)n2)cc1 0.849%
Cc1ccccc1-c1nc(SCC(=O)N(C)c2ccccc2)c2c(=O)n(C)c(=O)n(C)c2n1 31.6%
CCc1cccc(NC(=O)Cn2nc3c4cc(F)ccc4n(Cc4cccc(C)c4)cc-3c2=O)c1 -11.1%
CCc1ccccc1N1C(=O)N(CC(=O)c2ccc(OC)cc2)c2ccccc2S1(=O)=O -18.7%
CC(C)Oc1ccc(C(=O)Nc2nonc2-c2ccc(OC(C)C)cc2)cc1 0.588%
COC(=O)CCN(C(=O)C1CCN(S(=O)(=O)c2c(C)noc2/C=C/c2ccccc2F)CC1)c1ccccc1 -22.3%
COc1cc(NC(=O)CC(c2cccs2)N2Cc3ccccc3C2=O)cc(OC)c1OC (centres undefined) -8.57%
COc1ccc(NC(=O)C(=O)NCc2ccco2)cc1 41.6%
CCN(CCCNC(=O)Cn1ncc2c([nH]c3ccc(C)cc32)c1=O)Cc1ccccc1 -1.8%
Clc1cccc(CSc2nnc(C3CCNCC3)o2)c1 3.13%
CC(C)n1c(=N)c(C(=O)NC2CCCCC2)cc2c(=O)n3ccccc3nc21 -13.4%
CC(=O)c1ccc(NC(=O)Cn2nc(C(F)(F)F)c3c2CCCC3)cc1 -16.4%
COc1cccc(CN(C(=O)c2cccc(C)c2)C2CCS(=O)(=O)C2)c1 (centres undefined) -6.81%
COc1ccc(OC)c(-c2noc(N3CCN(c4cccc(C)c4C)CC3)n2)c1 -29%
CC(N[C@H]1CCCC[C@H]1NC(=O)c1ccc(Cl)cc1)c1cccc2ccccc12 (some centres undefined) -17.8%
CCc1ccc(NC(=O)Cn2c(=O)n(-c3cc(C)cc(C)c3)c(=O)c3oc4ccccc4c32)cc1 -4.7%
COC(=O)c1ccccc1NC(=O)C1=C(C)C(=O)OC12CCC(C)CC2 (centres undefined) -17.8%
COC(=O)CC1Oc2ccc(C)cc2-n2cc(-c3ccc(C)cc3)nc21 (centres undefined) -22.8%
Cc1ccc(CSc2oc(-c3cccs3)nc2S(=O)(=O)c2ccc(C)cc2)cc1 -20.7%
Cc1ccc(-n2nc3c(=O)n(CCCC(=O)NC(C)c4ccccc4)nc(C)c3c2C)cc1 (centres undefined) -19.3%
Cc1ccc2oc(C(=O)Nc3sc4c(c3C(=O)NCc3cccnc3)CCCC4)cc(=O)c2c1 8.91% [at 11.5 µM]
CCCN(CCC)C(=O)Cn1c(=O)n(Cc2ccc(C(=O)NCCc3ccc(Cl)cc3)cc2)c(=O)c2ccccc21 -18.9%
COc1ccccc1Cn1cc(C(=O)c2ccc(C)cc2)c(=O)c2cc(F)cc(F)c21 4.9%
CCOc1ccc(CCNC(=O)CSc2cc(=O)n(C)c3ccc(Cl)cc23)cc1OCC -9.85%
CCCc1cnc2c(c1SCc1ccc(C(F)(F)F)cc1)c(=O)n(C)c(=O)n2C -15.5%
CC(C)Oc1ccc(CNC(=O)c2ccc(Cn3c(=O)c4cccn4c4cccnc43)cc2)cc1 7.98%
Cc1ccc(NC(=O)CSc2ccc(-c3sc(-c4ccccc4)nc3C)nn2)cc1F -0.783%
CCN1C(=O)C2(c3ccccc31)c1c(oc3ccc(F)cc3c1=O)C(=O)N2CCCOC (centres undefined) -9.43%
COc1ccccc1N1CCN(C(=O)Cn2ncc3c(=O)oc4ccc(C)cc4c32)CC1 8.47%
Cc1cccc(N2CCN(C(=O)CCSCc3ccccc3F)CC2)c1C 9.82%
COc1ccc(-c2nsc(NC(=O)c3oc4cc(C)c(C)cc4c3C)n2)cc1 -4%
Cc1cccc(CNC(=O)c2cnc3sc(N4CCCCCC4)nn3c2=O)c1 -5.31%
CC(=O)c1ccc(NC(=O)Cn2c(=O)n(Cc3ccco3)c(=O)c3sc4ccccc4c32)cc1 -19.3%
Cc1nn2c(=O)cc(COC(=O)CNC(=O)c3ccc(F)cc3)nc2s1 2.82%
CCN1CCN(c2cc(C)c3cc(NC(=O)c4cc(Cl)ccc4OC)ccc3n2)CC1 -1.56%
Cc1ccc(-n2ncc(C(=O)NCCCN3CCCCC3)c2C2CCN(C(=O)OC(C)(C)C)CC2)cc1 -13.3%
Cc1ccc(OCC(O)Cn2c(=N)n(CCN3CCCCC3)c3ccccc32)cc1 (centres undefined) -20.9%
COc1cccc(OC)c1C(=O)Nc1ccc(S(=O)(=O)Nc2nccc(C)n2)cc1 -3.04%
Cc1ccc(NC(=O)c2c(C)nc3sc(C(=O)Nc4ccc(F)cc4)c(N)c3c2-c2ccccc2Cl)c(C)c1 -17.7%
O=C(O)c1cc(-c2ccc(C(F)(F)F)cc2)nc2n[nH]c(-c3ccccc3)c12 26.2%
CCc1ccc(S(=O)(=O)c2cn(CC)c3cc(N4CCOCC4)c(F)cc3c2=O)cc1 -0.426%
CC(=O)c1ccc(NC(=O)Cn2cc3c(n2)CCCC3)cc1 -14.8%
COc1ccccc1C(=O)Nc1nnc(S(=O)(=O)N(C)c2ccc(Cl)cc2)s1 15.8%
COc1ccc(Cl)cc1NC(=O)c1ccc2c(c1)CCCN2S(C)(=O)=O -18%
CCOc1ccc2c(c1)c(=O)c(S(=O)(=O)c1ccccc1)cn2CC(=O)Nc1ccccc1OC -20.4%
Cc1nc(-c2ccccc2)sc1CCNS(=O)(=O)c1ccccc1 -19.1%
COc1ccc(NC(=O)CN2C(=O)CSc3ccc(S(=O)(=O)N4CCCC4)cc32)cc1OC -22.5%
Cc1ccccc1Cn1c(CN2CCC(C(=O)NCCN(C)C)CC2)cc2ccccc21 -14.7%
Cc1ccccc1NC(=O)CN1C(=O)C(C)(C)c2ccccc21 -18% [at 11.5 µM]
COc1cccc(NC(=O)c2cc3c(=O)n(C)c4ccccc4c3n2C)c1 -3.22%
CCCCNC(=O)c1cnn2c(C)c(Cc3c(F)cccc3Cl)c(C)nc12 -18%
Cc1cccc(C)c1NC(=O)Cn1c(=O)n(CCC(=O)NCc2ccccc2Cl)c(=O)c2sccc21 -13.1%
COc1ccc(OC)c(CCNC(=O)c2c(C)oc3ncn(C)c(=O)c23)c1 6.95%
O=C(Cn1c(SCC(=O)Nc2ccc(F)cc2)nc2ccccc21)NCc1ccc(F)cc1 -30.3%
N#Cc1ccc(C(=O)Nc2cc3nn(-c4ccccc4)nc3cc2Cl)c(F)c1 8.3%
CCCC(=O)NCC1(N(C)C)CCCCC1 -14.2%
